# Some of these densities may be calculated back from excess volumes.
# Experiment: xn = mol fraction of the nth substance listed
# Conditions: 101 kPa
compound,measurement,setting,value
Nc1ccccc1 + CCCC[n+]1ccn(C)c1.F[B-](F)(F)F,mass density,"298.15 K, x1 = 0.1011",1200.6 kg/m3
same,mass density,"298.15 K, x1 = 0.4004",1167.1 kg/m3
same,mass density,"298.15 K, x1 = 0.5004",1153.1 kg/m3
same,mass density,"298.15 K, x1 = 0.6",1136.3 kg/m3
same,mass density,"298.15 K, x1 = 0.6999",1115.7 kg/m3
same,mass density,"298.15 K, x1 = 0.8001",1090.1 kg/m3
same,mass density,"298.15 K, x1 = 0.8995",1058 kg/m3
same,mass density,"303.15 K, x1 = 0.1011",1188.7 kg/m3
same,mass density,"303.15 K, x1 = 0.2003",1179.3 kg/m3
same,mass density,"303.15 K, x1 = 0.3",1168.8 kg/m3
same,mass density,"303.15 K, x1 = 0.5004",1143.9 kg/m3
same,mass density,"303.15 K, x1 = 0.6",1128.2 kg/m3
same,mass density,"303.15 K, x1 = 0.6999",1108.7 kg/m3
same,mass density,"303.15 K, x1 = 0.8001",1084.1 kg/m3
same,mass density,"303.15 K, x1 = 0.8995",1053.1 kg/m3
same,mass density,"308.15 K, x1 = 0.1011",1186.8 kg/m3
same,mass density,"308.15 K, x1 = 0.2003",1177.4 kg/m3
same,mass density,"308.15 K, x1 = 0.5004",1141.4 kg/m3
same,mass density,"308.15 K, x1 = 0.6",1125.4 kg/m3
same,mass density,"308.15 K, x1 = 0.6999",1105.9 kg/m3
same,mass density,"308.15 K, x1 = 0.8001",1081 kg/m3
same,mass density,"308.15 K, x1 = 0.8995",1049.7 kg/m3
same,mass density,"313.15 K, x1 = 0.2003",1173.5 kg/m3
same,mass density,"313.15 K, x1 = 0.4004",1151 kg/m3
same,mass density,"313.15 K, x1 = 0.5004",1137.5 kg/m3
same,mass density,"313.15 K, x1 = 0.6999",1101.7 kg/m3
same,mass density,"313.15 K, x1 = 0.8001",1076.6 kg/m3
